From patent US20210228731A1, “ANTIBODY DRUG CONJUGATES FOR ABLATING HEMATOPOIETIC STEM CELLS” (NOVARTIS AG, priority 2018, published 2021)

B1: Conjugate J9: Anti-cKIT Fab'1 conjugated to LP2 (Fab)
heavy: QVQLVQSGAEVKKPGSSVKVSCKASGGTFSSYAISWVRQAPGQGLEWMGVIFPAEGAPGYAQKFQGRVTITADESTSTAYMELSSLRSEDTAVYYCARGGYISDFDVWGQGTLVTVSSASTKGPSVFPLAPSSKSTSGGTAALGCLVKDYFPEPVTVSWNSGALTSGVHTFPAVLQSSGLYSLSSVVTVPSSSLGTQTYICNVNHKPSNTKVDKRVEPKSCDKTHTCPPCPAPELLG
light: DIQMTQSPSSLSASVGDRVTITCRASQSISNYLAWYQQKPGKAPKLLIYDASSLQSGVPSRFSGSGSGTDFTLTISSLQPEDFATYYCQQYYYESITFGQGTKVEIKRTVAAPSVFIFPPSDEQLKSGTASVVCLLNNFYPREAKVQWKVDNALQSGNSQESVTEQDSKDSTYSLSSTLTLSKADYEKHKVYACEVTHQGLSSPVTKSFNRGEC
modifications: here or on the partner: linker-payload LP2 on native cysteine; linker-payload LP2 on native cysteines (native cysteine conjugation), DAR 3.8 for the whole Fab'
B2: Conjugate J11: Anti-cKIT Fab'2 conjugated to LP2 (Fab)
heavy: QVQLVQSGAEVKKPGSSVKVSCKASGGTFSSHALSWVRQAPGQGLEWMGGIIPSFGTADYAQKFQGRVTITADESTSTAYMELSSLRSEDTAVYYCARGLYDFDYWGQGTLVTVSSASTKGPSVFPLAPSSKSTSGGTAALGCLVKDYFPEPVTVSWNSGALTSGVHTFPAVLQSSGLYSLSSVVTVPSSSLGTQTYICNVNHKPSNTKVDKRVEPKSCDKTHTCPPCPAPELLG
light: DIQMTQSPSSLSASVGDRVTITCRASQDISQDLAWYQQKPGKAPKLLIYDASSLQSGVPSRFSGSGSGTDFTLTISSLQPEDFAVYYCQQYYYLPSTFGQGTKVEIKRTVAAPSVFIFPPSDEQLKSGTASVVCLLNNFYPREAKVQWKVDNALQSGNSQESVTEQDSKDSTYSLSSTLTLSKADYEKHKVYACEVTHQGLSSPVTKSFNRGEC
modifications: here or on the partner: linker-payload LP2 on native cysteine; linker-payload LP2 on native cysteines (native cysteine conjugation), DAR 3.8 for the whole Fab'
B3: Conjugate J5: Anti-cKIT Fab'1 conjugated to LP2 (Fab)
heavy: QVQLVQSGAEVKKPGSSVKVSCKASGGTFSSYAISWVRQAPGQGLEWMGVIFPAEGAPGYAQKFQGRVTITADESTSTAYMELSSLRSEDTAVYYCARGGYISDFDVWGQGTLVTVSSASTKGPSVFPLAPSSKSTSGGTAALGCLVKDYFPEPVTVSWNSGALTSGVHTFPAVLQSSGLYSLSSVVTVPSSSLGTQTYICNVNHKPSNTKVDKRVEPKSCDKTHTCPPCPAP
light: DIQMTQSPSSLSASVGDRVTITCRASQSISNYLAWYQQKPGKAPKLLIYDASSLQSGVPSRFSGSGSGTDFTLTISSLQPEDFATYYCQQYYYESITFGQGTKVEIKRTVAAPSVFIFPPSDEQLKSGTASVVCLLNNFYPREAKVQWKVDNALQSGNSQESVTEQDSKDSTYSLSSTLTLSKADYEKHKVYACEVTHQGLSSPVTKSFNRGEC
modifications: here or on the partner: linker-payload LP2 on native cysteine; linker-payload LP2 on native cysteines (native cysteine conjugation), DAR 3.9 for the whole Fab'
B4: Conjugate J8: Anti-cKIT Fab'1 conjugated to LP1 (Fab)
heavy: QVQLVQSGAEVKKPGSSVKVSCKASGGTFSSYAISWVRQAPGQGLEWMGVIFPAEGAPGYAQKFQGRVTITADESTSTAYMELSSLRSEDTAVYYCARGGYISDFDVWGQGTLVTVSSASTKGPSVFPLAPSSKSTSGGTAALGCLVKDYFPEPVTVSWNSGALTSGVHTFPAVLQSSGLYSLSSVVTVPSSSLGTQTYICNVNHKPSNTKVDKRVEPKSCDKTHTCPPCPAPELLG
light: DIQMTQSPSSLSASVGDRVTITCRASQSISNYLAWYQQKPGKAPKLLIYDASSLQSGVPSRFSGSGSGTDFTLTISSLQPEDFATYYCQQYYYESITFGQGTKVEIKRTVAAPSVFIFPPSDEQLKSGTASVVCLLNNFYPREAKVQWKVDNALQSGNSQESVTEQDSKDSTYSLSSTLTLSKADYEKHKVYACEVTHQGLSSPVTKSFNRGEC
modifications: here or on the partner: linker-payload LP1 on native cysteine; linker-payload LP1 on native cysteines (native cysteine conjugation), DAR 3.8 for the whole Fab'
B5: Conjugate J4: Anti-cKIT Fab'1 conjugated to LP1 (Fab)
heavy: QVQLVQSGAEVKKPGSSVKVSCKASGGTFSSYAISWVRQAPGQGLEWMGVIFPAEGAPGYAQKFQGRVTITADESTSTAYMELSSLRSEDTAVYYCARGGYISDFDVWGQGTLVTVSSASTKGPSVFPLAPSSKSTSGGTAALGCLVKDYFPEPVTVSWNSGALTSGVHTFPAVLQSSGLYSLSSVVTVPSSSLGTQTYICNVNHKPSNTKVDKRVEPKSCDKTHTCPPCPAP
light: DIQMTQSPSSLSASVGDRVTITCRASQSISNYLAWYQQKPGKAPKLLIYDASSLQSGVPSRFSGSGSGTDFTLTISSLQPEDFATYYCQQYYYESITFGQGTKVEIKRTVAAPSVFIFPPSDEQLKSGTASVVCLLNNFYPREAKVQWKVDNALQSGNSQESVTEQDSKDSTYSLSSTLTLSKADYEKHKVYACEVTHQGLSSPVTKSFNRGEC
modifications: here or on the partner: linker-payload LP1 on native cysteine; linker-payload LP1 on native cysteines (native cysteine conjugation), DAR 3.8 for the whole Fab'
B6: Conjugate J16: Anti-cKIT Fab'1 conjugated to LP2 (Fab)
heavy: QVQLVQSGAEVKKPGSSVKVSCKASGGTFSSYAISWVRQAPGQGLEWMGVIFPAEGAPGYAQKFQGRVTITADESTSTAYMELSSLRSEDTAVYYCARGGYISDFDVWGQGTLVTVSSASTKGPSVFPLAPSSKSTSGGTAALGCLVKDYFPEPVTVSWNSGALTSGVHTFPAVLQSSGLYSLSSVVTVPSSSLGTQTYICNVNHKPSNTKVDKRVEPKSCDKTHTCPPCPAP
light: DIQMTQSPSSLSASVGDRVTITCRASQSISNYLAWYQQKPGKAPKLLIYDASSLQSGVPSRFSGSGSGTDFTLTISSLQPEDFATYYCQQYYYESITFGQGTKVEIKRTVAAPSVFIFPPSDEQLKSGTASVVCLLNNFYPREAKVQWKVDNALQSGNSQESVTEQDSKDSTYSLSSTLTLSKADYEKHKVYACEVTHQGLSSPVTKSFNRGEC
modifications: here or on the partner: linker-payload LP2 on native cysteine; linker-payload LP2 on native cysteines (native cysteine conjugation), DAR 3.9 for the whole Fab'
B7: Conjugate J15: Anti-cKIT Fab'1 conjugated to LP1 (Fab)
heavy: QVQLVQSGAEVKKPGSSVKVSCKASGGTFSSYAISWVRQAPGQGLEWMGVIFPAEGAPGYAQKFQGRVTITADESTSTAYMELSSLRSEDTAVYYCARGGYISDFDVWGQGTLVTVSSASTKGPSVFPLAPSSKSTSGGTAALGCLVKDYFPEPVTVSWNSGALTSGVHTFPAVLQSSGLYSLSSVVTVPSSSLGTQTYICNVNHKPSNTKVDKRVEPKSCDKTHTCPPCPAP
light: DIQMTQSPSSLSASVGDRVTITCRASQSISNYLAWYQQKPGKAPKLLIYDASSLQSGVPSRFSGSGSGTDFTLTISSLQPEDFATYYCQQYYYESITFGQGTKVEIKRTVAAPSVFIFPPSDEQLKSGTASVVCLLNNFYPREAKVQWKVDNALQSGNSQESVTEQDSKDSTYSLSSTLTLSKADYEKHKVYACEVTHQGLSSPVTKSFNRGEC
modifications: here or on the partner: linker-payload LP1 on native cysteine; linker-payload LP1 on native cysteines (native cysteine conjugation), DAR 3.9 for the whole Fab'
B8: Conjugate J10: Anti-cKIT Fab'2 conjugated to LP1 (Fab)
heavy: QVQLVQSGAEVKKPGSSVKVSCKASGGTFSSHALSWVRQAPGQGLEWMGGIIPSFGTADYAQKFQGRVTITADESTSTAYMELSSLRSEDTAVYYCARGLYDFDYWGQGTLVTVSSASTKGPSVFPLAPSSKSTSGGTAALGCLVKDYFPEPVTVSWNSGALTSGVHTFPAVLQSSGLYSLSSVVTVPSSSLGTQTYICNVNHKPSNTKVDKRVEPKSCDKTHTCPPCPAPELLG
light: DIQMTQSPSSLSASVGDRVTITCRASQDISQDLAWYQQKPGKAPKLLIYDASSLQSGVPSRFSGSGSGTDFTLTISSLQPEDFAVYYCQQYYYLPSTFGQGTKVEIKRTVAAPSVFIFPPSDEQLKSGTASVVCLLNNFYPREAKVQWKVDNALQSGNSQESVTEQDSKDSTYSLSSTLTLSKADYEKHKVYACEVTHQGLSSPVTKSFNRGEC
modifications: here or on the partner: linker-payload LP1 on native cysteine; linker-payload LP1 on native cysteines (native cysteine conjugation), DAR 3.6 for the whole Fab'

These binders were tested against Human cKIT on human mobilized peripheral blood hematopoietic stem cells (human), P10721 (assay: cell-based or functional assay).

| Binder | EC50, cell viability, Human CD34 + cells | EC50, cell viability, Human CD90 + cells | EC50, cell viability, Human total nucleated cells |
| --- | --- | --- | --- |
| B1 | 0.0036 µg/mL | 0.012 µg/mL | 0.0018 µg/mL |
| B2 | 0.027 µg/mL | 0.041 µg/mL | 0.016 µg/mL |
| B3 | 0.013 µg/mL | 0.039 µg/mL | 0.0088 µg/mL |
| B4 | 0.016 µg/mL | 0.031 µg/mL | 0.01 µg/mL |
| B5 | 0.025 µg/mL | 0.037 µg/mL |  |
| B6 | 0.043 µg/mL | 0.089 µg/mL | 0.029 µg/mL |
| B7 | 0.151 µg/mL | 0.229 µg/mL | 0.115 µg/mL |
| B8 | 0.057 µg/mL | 0.059 µg/mL | 0.035 µg/mL |
